Measurements taken from PubChem BioAssay (NCI).
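48-hour exposure; five concentrations; linearly interpolated endpoints. GI50 marks 50% less growth. TGI denotes the concentration required for complete inhibition of growth.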

The molecules below were run on NCI-H322M lung (assay: DTP human tumour cell line panel, 48 h).

Structure (SMILES) | TGI [µM] | GI50 [µM]
CCOC(=O)/C(=C\NC#N)c1nc2ccccc2[nH]1 | > 100 | –
CC(=O)OC1C/C(C)=C/[C@H](O)CC(C)/C=C/[C@@]2(C)CCC(C(C)(C)O)C12 (stereo not given in full) | > 100 | –
CN(C)NC(=S)NC12CC3CC(CC(C3)C1)C2 | > 100 | –
O=C(Nn1c2c(sc1=NC1CC1)C(=O)c1ccccc1C2=O)c1cc2ccc1CCc1ccc(cc1)CC2 | 5.13 | 1.93
CCOC(=O)c1cn2ncnc(Oc3ccc(NC(=O)NCCN(CC)CC)c(Cl)c3)c2c1C | 11.5 | 3.11
CCCCCC/C=C/CCCCCCCc1cccc(O)c1C(=O)O | > 100 | –
Cc1cccc(NC(=O)Cc2nc3ccccc3s2)c1C | > 100 | –
Oc1oc(-c2ccccc2)nc1/C=C1/C=NN=N1 | > 100 | –
CC(C)(CO)NC(=O)c1cccc(C(=O)NC(C)(C)CO)c1Br | > 100 | –
CCOc1ccc(-n2c(=O)n3c(Nc4ccc(Cl)cc4)nc4c(c(=O)n(C)c(=O)n4C)n3c2=O)cc1 | > 100 | –
Oc1cccc2nc3cc(CN4CCOCC4)c(CN4CCOCC4)cc3nc12 | > 100 | –
CNc1nc(=O)c(C#N)c(-c2ccc(C)cc2)s1 | > 100 | –
CN(C)CCN1C(=O)c2cccc3c(-c4ccc5ncn(C6CCCCC6)c5c4)ccc(c23)C1=O | 8.04 | 1.48
CCC[CH2][Sn]1([CH2]CCC)[O]CC([CH2][Sn]([c]2ccccc2)([c]2ccccc2)[c]2ccccc2)[O]1 (stereo not given) | 27.3 | 14.3
COc1cc(C(=O)/C=C/c2c(-c3cccs3)nc3ccccn23)cc(OC)c1OC | 17.9 | 3.02
CC(=O)Oc1cc(OC(C)=O)c2cc3c(cc2c1OC(C)=O)C(=O)C1(CCCC1)C3=O | 31.3 | –
OC(C1CCCC1=N/N=C1/CCCC1C(O)(C(F)(F)Cl)C(F)(F)Cl)(C(F)(F)Cl)C(F)(F)Cl (stereo not given) | > 10 | –
Cc1ccc(C(=O)Nc2ccccc2C(=O)N/N=C(\c2ccccc2)c2ccccn2)cc1 | > 100 | 0.21
CCOC(=S)SC/C(=N\OC(C)(C)OC)c1ccccc1 | > 100 | –
O=C(Nc1cc([N+](=O)[O-])cc([N+](=O)[O-])c1)OC1C2CCC1C1OC1C2 (stereo not given) | > 50 | –
CC1(C)N=C(/C(C#N)=[N+](/[O-])C(=O)c2ccccc2)C(C)(C)N1O | > 100 | –
c1ccc([P+](CCC[P+](c2ccccc2)(c2ccccc2)c2ccccc2)(c2ccccc2)c2ccccc2)cc1 | > 100 | 48.4
CN(Cc1ccccc1)c1nc(=[N+](C)C)ss1 | > 100 | –
CCCCCCCCCCCCCCCCCCOCC1(COP(=O)([O-])OCC[N+](C)(C)C)CCCO1 (stereo not given) | 26.2 | –
COc1ccc(-c2c(C(C)=O)c(-c3ccccc3)n(C3OC(COC(C)=O)C(OC(C)=O)C(OC(C)=O)C3OC(C)=O)c(=S)c2C#N)cc1O (stereo not given) | > 100 | –

Structure (SMILES) | TGI [µM] | GI50 [µM]
CCCCCCCCCCCCCCCCCCNC(=S)/N=C/c1c(O)cc(C)oc1=O | 64.9 | –
CN(/C(=N\O)c1ccccc1)c1ccccc1 | > 100 | –
CC(C(O)c1ccccc1)[N+](=O)[O-] (stereo not given) | > 100 | –
COc1ccc(C2c3c(-c4ccccc4)nn(-c4ccccc4)c3Oc3ncn(N)c(=N)c32)cc1OC (stereo not given) | 4.7 | –
c1cc(-c2cnn3nc(N4CCOCC4)ccc23)nc(NC2CC2)n1 | > 25 | 10.7
C=C1C(=O)O[C@H]2[C@H]1CC/C(COC(=O)NCc1cccc(OC)c1)=C\CC[C@@]1(C)O[C@@H]21 | 24.4 | 12
Cc1ccc(N2C(=O)C(O)=C(C(=O)C(C)(C)C)C2c2ccc([N+](=O)[O-])cc2)cc1 (stereo not given) | 82.1 | –
CNC(=O)C(NC(=O)[C@H](CC(C)C)NC(=O)[C@@H](S)CCN1C(=O)N(C)C(C)(C)C1=O)C(C)(C)C (stereo not given in full) | > 100 | –
CCN(CC)CCNc1ccc2nnn3c4ccc(OC(C)=O)cc4c(=O)c1c23 | 17.4 | –
CC(=O)NNc1nc(C)c(C(/C=C/c2ccc(Cl)cc2)=N/NC(=S)NN)s1 | > 100 | –
COc1cc(C2c3cc4c(cc3[C@@H](Nc3ccc(N5CCOCC5)cc3)C3COC(=O)[C@H]23)OCO4)cc(OC)c1O (stereo not given in full) | 36.4 | –
COC(=O)C1CCC(N2C(=O)CCC2C(=O)OC)=N1 (stereo not given) | > 100 | –
O=C(O)[C@H]1NC[C@@H]2ON=C(Br)[C@@H]21 | > 100 | –
Cc1cccc2cc3ccc4ccccc4c3cc12 | > 100 | –
CC(=O)O[C@H]1CC[C@H]2[C@@H]3CC[C@H]4Nc5c(cnn5S(C)(=O)=O)C[C@]4(C)[C@H]3CC[C@]12C | > 100 | –
Cc1cc(Cl)ccc1Nc1nc(C(F)(F)F)ccc1C(=O)N/N=C/c1ccc(N(C)C)cc1 | > 100 | 0.998
CCC(C)c1cnc(CC(C)C)c(=O)[nH]1 (stereo not given) | > 100 | –
Cc1cc(C)c(N)c(C)c1N | > 100 | –
COc1cc(C(=C2SCCS2)c2nccc3cc(OC)c(OC)cc23)c([N+](=O)[O-])cc1OC | > 100 | –
[N-]=[N+]=NC(c1cn(C2CC(O)C(CO)O2)c(=O)[nH]c1=O)C(I)I (stereo not given) | > 100 | –
OCCCCC#Cc1ccccc1C#Cc1cccs1 | 46.2 | 19.9
COc1ccc(NCc2c(O)ccc3ccccc23)cc1 | > 100 | –
O=C(O)C1(CC(CCCN2CCCCC2)c2ccccc2)CCCC1 (stereo not given) | > 100 | –
COc1cc(CCC(=O)NS(=O)(=O)c2ccccc2)cc(OC)c1OC | > 100 | –
